# Results as given in the supplement of paper PMC8728848.
# The other results are listed elsewhere or left out.
# B1: Dectin2 (Homo sapiens), Q6EIG7 (protein)
# chain: MMQEQQPQSTEKRGWLSLRLWSVAGISIALLSACFIVSCVVTYHFTYGETGKRLSELHSYHSSLTCFSEGTKVPAWGCCPASWKSFGSSCYFISSEEKVWSKSEQNCVEMGAHLVVFNTEAEQNFIVQQLNESFSYFLGLSDPQGNNNWQWIDKTPYEKNVRFWHLGEPNHSAEQCASIVFWKPTGWGWNDVICETRRNSICEMNKIYL
# Tests used:
# Experiment in all cases: glycan array binding signal (z-score within array); higher = stronger binding
# Details in all cases: glycan notation: IUPAC condensed, linker removed
# [1] = target: Fuc(a1-3)[Gal3S(b1-4)]GlcNAc
# Outline: (§1)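 Columns mapping to the same glycan were averaged after glycan names were converted to IUPAC-condensed notation. The data come from 3228 arrays in the Consortium for Functional Glycomics database, limited to those with an available protein sequence. Binding is reported as a within-array Z-score averaged across arrays of one protein sequence and across linkers.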
# [2] = target: Fuc(a1-3)[Gal3S(b1-4)]GlcNAc6S
# Outline: as §1
# [3] = target: Fuc(a1-3)[GalNAc(b1-4)]GlcNAc
# Outline: as §1
# [4] = target: Fuc(a1-3)[GalNAc(b1-4)]GlcNAc6S
# Outline: as §1
# Fuc(a1-4)GlcNAc = target: Fuc(a1-4)GlcNAc
# Outline: as §1
# Fuc(b1-3)GlcNAc = target: Fuc(b1-3)GlcNAc
# Outline: as §1
# Gal(a1-2)Gal = target: Gal(a1-2)Gal
# Outline: as §1
# Gal(a1-3)Gal = target: Gal(a1-3)Gal
# Outline: as §1
# Gal(a1-3)Gal(b1-3)GlcNAc = target: Gal(a1-3)Gal(b1-3)GlcNAc
# Outline: as §1
# [5] = target: Gal(a1-3)Gal(b1-3)GlcNAc(b1-2)Man
# Outline: as §1
# [6] = target: Gal(a1-3)Gal(b1-3)GlcNAc(b1-2)Man(a1-3)[Gal(a1-3)Gal(b1-3)GlcNAc(b1-2)Man(a1-6)]Man(b1-4)GlcNAc(b1-4)GlcNAc
# Outline: as §1
# [7] = target: Gal(a1-3)Gal(b1-3)GlcNAc(b1-3)GalNAc
# Outline: as §1
# [8] = target: Gal(a1-3)Gal(b1-3)GlcNAc(b1-6)GalNAc
# Outline: as §1
# [9] = target: Gal(a1-3)Gal(b1-3)[Fuc(a1-4)]GlcNAc(b1-2)Man(a1-3)[Gal(a1-3)Gal(b1-3)[Fuc(a1-4)]GlcNAc(b1-2)Man(a1-6)]Man(b1-4)GlcNAc(b1-4)GlcNAc
# Outline: as §1
# Gal(a1-3)Gal(b1-4)Glc = target: Gal(a1-3)Gal(b1-4)Glc
# Outline: as §1
# Gal(a1-3)Gal(b1-4)GlcNAc = target: Gal(a1-3)Gal(b1-4)GlcNAc
# Outline: as §1
# [10] = target: Gal(a1-3)Gal(b1-4)GlcNAc(b1-2)Man
# Outline: as §1
# [11] = target: Gal(a1-3)Gal(b1-4)GlcNAc(b1-2)Man(a1-3)[Gal(a1-3)Gal(b1-4)GlcNAc(b1-2)Man(a1-6)]Man(b1-4)GlcNAc(b1-4)GlcNAc
# Outline: as §1
# [12] = target: Gal(a1-3)Gal(b1-4)GlcNAc(b1-3)GalNAc
# Outline: as §1
# [13] = target: Gal(a1-3)Gal(b1-4)GlcNAc(b1-6)GalNAc
# Outline: as §1
# [14] = target: Gal(a1-3)Gal(b1-4)[Fuc(a1-3)]GlcNAc
# Outline: as §1
# [15] = target: Gal(a1-3)Gal(b1-4)[Fuc(a1-3)]GlcNAc(b1-2)Man(a1-3)[Gal(a1-3)Gal(b1-4)[Fuc(a1-3)]GlcNAc(b1-2)Man(a1-6)]Man(b1-4)GlcNAc(b1-4)GlcNAc
# Outline: as §1
# Gal(a1-3)GalNAc = target: Gal(a1-3)GalNAc
# Outline: as §1
# [16] = target: Gal(a1-3)[Gal(a1-4)]Gal(b1-4)GlcNAc
# Outline: as §1
# [17] = target: Gal(a1-4)Gal(b1-3)GlcNAc(b1-2)Man(a1-3)[Gal(a1-4)Gal(b1-3)GlcNAc(b1-2)Man(a1-6)]Man(b1-4)GlcNAc(b1-4)GlcNAc
# Outline: as §1
# Gal(a1-4)Gal(b1-4)Glc = target: Gal(a1-4)Gal(b1-4)Glc
# Outline: as §1
# Gal(a1-4)Gal(b1-4)GlcNAc = target: Gal(a1-4)Gal(b1-4)GlcNAc
# Outline: as §1
# [18] = target: Gal(a1-4)Gal(b1-4)GlcNAc(b1-2)Man(a1-3)[Gal(a1-4)Gal(b1-4)GlcNAc(b1-2)Man(a1-6)]Man(b1-4)GlcNAc(b1-4)GlcNAc
# Outline: as §1
# [19] = target: Gal(a1-4)Gal(b1-4)GlcNAc(b1-3)Gal(b1-4)Glc
# Outline: as §1
# Gal(a1-4)GlcNAc = target: Gal(a1-4)GlcNAc
# Outline: as §1
# Gal(a1-6)Glc = target: Gal(a1-6)Glc
# Outline: as §1
# Gal(b1-2)Gal = target: Gal(b1-2)Gal
# Outline: as §1
# Gal(b1-3)Gal = target: Gal(b1-3)Gal
# Outline: as §1
# Gal(b1-3)Gal(b1-4)GlcNAc = target: Gal(b1-3)Gal(b1-4)GlcNAc
# Outline: as §1
# Gal(b1-3)GalNAc = target: Gal(b1-3)GalNAc
# Outline: as §1
# [20] = target: Gal(b1-3)GalNAc(a1-3)[Fuc(a1-2)]Gal(b1-4)Glc
# Outline: as §1
# [21] = target: Gal(b1-3)GalNAc(a1-3)[Fuc(a1-2)]Gal(b1-4)GlcNAc
# Outline: as §1
# Gal(b1-3)GalNAc(b1-3)Gal = target: Gal(b1-3)GalNAc(b1-3)Gal
# Outline: as §1
# [22] = target: Gal(b1-3)GalNAc(b1-3)Gal(a1-4)Gal(b1-4)Glc
# Outline: as §1
# [23] = target: Gal(b1-3)GalNAc(b1-4)Gal(b1-4)Glc
# Outline: as §1
# [24] = target: Gal(b1-3)GalNAc(b1-4)[Neu5Ac(a2-3)]Gal(b1-4)Glc
# Outline: as §1
# Gal(b1-3)GlcNAc = target: Gal(b1-3)GlcNAc
# Outline: as §1
# [25] = target: Gal(b1-3)GlcNAc(a1-3)Gal(b1-4)GlcNAc
# Outline: as §1
# [26] = target: Gal(b1-3)GlcNAc(a1-6)Gal(b1-4)GlcNAc
# Outline: as §1
# Gal(b1-3)GlcNAc(b1-2)Man = target: Gal(b1-3)GlcNAc(b1-2)Man
# Outline: as §1
binder,measurement,setting,value
B1,glycan array binding signal (z-score),[1],-0.117
same,glycan array binding signal (z-score),[2],-0.149
same,glycan array binding signal (z-score),[3],-0.105
same,glycan array binding signal (z-score),[4],-0.154
same,glycan array binding signal (z-score),Fuc(a1-4)GlcNAc,-0.102
same,glycan array binding signal (z-score),Fuc(b1-3)GlcNAc,0.296
same,glycan array binding signal (z-score),Gal(a1-2)Gal,-0.154
same,glycan array binding signal (z-score),Gal(a1-3)Gal,-0.131
same,glycan array binding signal (z-score),Gal(a1-3)Gal(b1-3)GlcNAc,-0.118
same,glycan array binding signal (z-score),[5],-0.168
same,glycan array binding signal (z-score),[6],0.119
same,glycan array binding signal (z-score),[7],-0.191
same,glycan array binding signal (z-score),[8],-0.188
same,glycan array binding signal (z-score),[9],0.523
same,glycan array binding signal (z-score),Gal(a1-3)Gal(b1-4)Glc,-0.153
same,glycan array binding signal (z-score),Gal(a1-3)Gal(b1-4)GlcNAc,-0.188
same,glycan array binding signal (z-score),[10],-0.15
same,glycan array binding signal (z-score),[11],-0.094
same,glycan array binding signal (z-score),[12],-0.21
same,glycan array binding signal (z-score),[13],-0.188
same,glycan array binding signal (z-score),[14],-0.135
same,glycan array binding signal (z-score),[15],0.151
same,glycan array binding signal (z-score),Gal(a1-3)GalNAc,-0.124
same,glycan array binding signal (z-score),[16],-0.202
same,glycan array binding signal (z-score),[17],-0.112
same,glycan array binding signal (z-score),Gal(a1-4)Gal(b1-4)Glc,-0.139
same,glycan array binding signal (z-score),Gal(a1-4)Gal(b1-4)GlcNAc,-0.141
same,glycan array binding signal (z-score),[18],-0.02
same,glycan array binding signal (z-score),[19],-0.164
same,glycan array binding signal (z-score),Gal(a1-4)GlcNAc,-0.152
same,glycan array binding signal (z-score),Gal(a1-6)Glc,-0.105
same,glycan array binding signal (z-score),Gal(b1-2)Gal,-0.153
same,glycan array binding signal (z-score),Gal(b1-3)Gal,-0.111
same,glycan array binding signal (z-score),Gal(b1-3)Gal(b1-4)GlcNAc,-0.196
same,glycan array binding signal (z-score),Gal(b1-3)GalNAc,-0.148
same,glycan array binding signal (z-score),[20],-0.194
same,glycan array binding signal (z-score),[21],-0.21
same,glycan array binding signal (z-score),Gal(b1-3)GalNAc(b1-3)Gal,-0.163
same,glycan array binding signal (z-score),[22],-0.183
same,glycan array binding signal (z-score),[23],-0.134
same,glycan array binding signal (z-score),[24],-0.198
same,glycan array binding signal (z-score),Gal(b1-3)GlcNAc,-0.105
same,glycan array binding signal (z-score),[25],-0.186
same,glycan array binding signal (z-score),[26],-0.206
same,glycan array binding signal (z-score),Gal(b1-3)GlcNAc(b1-2)Man,0.191
